Results published in ChEMBL document CHEMBL4888484, “Replenishing the malaria drug discovery pipeline: Screening and hit evaluation of the MMV Hit Generation Library 1 (HGL1) against asexual blood stage Plasmodium falciparum ,using a nano luciferase reporter read-out” (2022).
About 540 (0.36%) of roughly 150,000 compounds showed an effect of 50% or more. This is one part of the list.

test system: Plasmodium falciparum; assay: Primary screen in NF54 nanoGlo assay, in single point, at 2uM, 72h; a lower Z score goes with more inhibition; assay type: functional, Erythrocyte; settings: timepoint 72 hour

| Structure (SMILES) | % Inhibition | Z score |
| --- | --- | --- |
| CCn1c2ccccc2c2cc(CN3CCN(C(=O)COc4ccc5ccccc5c4)CC3)ccc21 | -4% | 0.48 |
| Cc1ncoc1C(=O)N1CC[C@@H]2CN(Cc3cccnc3)[C@@H]2C1 | -14% | 1.87 |
| C[C@@H](Cc1ccccc1Cl)NC(=O)NC(C(N)=O)C(N)=O | -2% | 0.23 |
| COc1ccc(NC(=O)CN2C(=O)CN=C(c3ccc(F)cc3)c3c2sc(C)c3C)cc1 | -9% | 1.18 |
| c1ccc2c(c1)C[C@H](Cc1ccc3c(c1)CNCC3)CO2 | 3% | -0.36 |
| CCC(CC)CN1CC2(CCN(C)CC2)OC1=O | -1% | 0.15 |
| CC(CCCC(C)(C)O)NC1CCCC(C)(C)C1 (stereo not drawn) | -11% | 1.8 |
| C[C@H](NCCc1c[nH]c2ccccc12)c1ccncc1 | -1% | 0.12 |
| CCN(CC)c1ccc([C@@H]2CC(c3c(O)n(C)c(=O)n(C)c3=O)=NN2C(C)=O)cc1 | 3% | -0.6 |
| CO[C@H]1C[C@H]2CC[C@@H](C1)N2C/C=C/c1ccccc1 | -5% | 0.97 |
| CC(C)n1ncc(C(=O)N[C@H](C(=O)OCc2ccccc2)C(C)(C)C)c1Cl | -3% | 0.49 |
| O=C1OC[C@H]2CN(Cc3cccnc3)CCN12 | -3% | 0.46 |
| O=C(CN1CCCC1=O)NCC[C@H]1CCCOC1 | -1% | 0.2 |
| CC1CCC(NCCc2c[nH]c3ccccc23)CC1 (stereo not drawn) | -1% | 0.17 |
| CCc1cc(NC(=O)c2cn(C(C)C)nn2)ccc1C | 5% | -0.64 |
| CCN1CN(CC(=O)N[C@@H](C)Cc2ccccc2C)CC1=O | 0% | 0.01 |
| Cc1ccnc(N2CCC(CO)(Nc3ccccc3)CC2)n1 | -7% | 1.03 |
| COc1cccc(-c2cnc(-c3ccc(CNC(=O)c4ccc(S(=O)(=O)F)cc4)cc3)[nH]2)c1 | 1% | -0.17 |
| CCCc1n[nH]cc1C(=O)N1C[C@H](c2ccccc2)[C@@H]2[C@H]1C1CCN2CC1 | -6% | 0.94 |
| O=C1NCCCC1N1CCN2CCCCC2C1 (stereo not drawn) | 11% | -1.45 |
| Cc1nc(CN2CC3CC2(C(F)(F)F)C3)sc1C | -1% | 0.17 |

| Structure (SMILES) | % Inhibition | Z score |
| --- | --- | --- |
| O=C(c1ccccc1Cn1cccn1)N1C2CCC1C(CO)C2 (stereo not drawn) | -32% | 3.74 |
| COc1cc(C[C@H]2C(=O)NC(=O)N(Cc3ccccc3)C2=O)ccc1O | -9% | 1.33 |
| CC(C)N(C)C(=O)N1CCN2C[C@@H](F)C[C@H]2C1 | 28% | -3.14 |
| c1nc(N2C[C@@H]3NCCO[C@H]3C2)c2ccsc2n1 | -10% | 1.35 |
| CCC1CN(Cc2cncnc2)CC2(CCOC2)O1 (stereo not drawn) | 0% | -0.02 |
| O=C(Nc1cn[nH]c1)Oc1ccccc1 | 28% | -3.21 |
| O=C(CN1CCCC1=O)NCC1(N2CCOCC2)CCCCC1 | -6% | 1.15 |
| Cc1nn(C(C)(C)C)cc1C(=O)Nc1ccc2cn(C(C)C)nc2c1 | -4% | 0.44 |
| CCCn1c(=O)oc2cc(S(=O)(=O)N3CCC(CC(=O)Nc4cc(C)ccc4C)CC3)ccc21 | -20% | 1.83 |
| CC1CN2c3ccccc3CC3(C(=O)N(c4ccccc4)C(=O)N=C3O)C2C(C)O1 (stereo not drawn) | 6% | -0.72 |
| O=C(N[C@@H](CO)C(=O)Nc1nc(-c2ccccc2)cs1)Oc1ccccc1 | -21% | 2.48 |
| c1ccc(-c2noc(CN3C[C@H]4CC[C@H]3C4)n2)nc1 | -19% | 1.65 |
| Cc1cc(C)c(S(=O)(=O)N(C(=O)Oc2ccccc2)c2ccc(OC(=O)Oc3ccccc3)cc2)c(C)c1 | -3% | 0.35 |
| Cc1ccc(CC(=O)N2C[C@H]3CC[C@@H](C2)N(C)C3)cc1 | -22% | 2.4 |
| CNc1ncc(CN(C)c2cc([C@H]3CCOC3)ncn2)cn1 | -15% | 2.76 |
| CCN(CC)C(=O)Oc1ccc2c(ccn2Cc2ccc(F)cc2)c1NC(=O)c1cc(Cl)cc(Cl)c1 | 3% | -0.24 |
| Cc1ccccc1CC(=O)N1CCN(Cc2ncc[nH]2)C[C@H](O)C1 | -3% | 0.58 |
| O=C(Cc1ccccc1)N1C[C@@H]2CC[C@H]1CN(Cc1ccncc1)C2 | 12% | -1.74 |
| COC(=O)c1cc(OC)cc2[nH]c(=O)oc12 | 32% | -4.13 |
| O=C(Cc1ccc(O)c(F)c1)N1C[C@H]2c3ccccc3OC[C@@]2(C(=O)O)C1 | -2% | 0.24 |
| N#Cc1ccc(S(=O)(=O)N2C3CCC2c2cncnc2C3)cc1 (stereo not drawn) | -16% | 2.1 |

| Structure (SMILES) | % Inhibition | Z score |
| --- | --- | --- |
| CCC[C@H](C)C1(CC)C(=O)NC(=Nc2ccccc2)NC1=O (stereo partly drawn) | -28% | 3.28 |
| CCC(=O)Nc1ccc(C)c(NC(=O)C2(c3ccccc3)CCN(C)CC2)c1 | -9% | 1.09 |
| O=C1CCCN1c1cccc(N[C@H]2CN3CCC2CC3)c1 | -5% | 0.84 |
| CN(CCc1cc(Cl)cc(Cl)c1)CC1CC(O)C1 (stereo not drawn) | 6% | -0.6 |
| CC(C)C(NCc1cn2cccnc2n1)C(O)c1ccccc1 (stereo not drawn) | -3% | 0.45 |
| O=C(Cc1ccc2c(c1)OCO2)N1CCN(CC2CC2)[C@@H]2CS(=O)(=O)C[C@@H]21 | -3% | 0.7 |
| C[C@@H]1N=C(c2ccccc2)c2cc(Cl)ccc2N(CC(=O)Nc2cccc(C(F)(F)F)c2)C1=O | 31% | -4.17 |
| CCc1ccc(NCC(=O)N2CCC3(CC2)OCCO3)cc1F | -6% | 1.09 |
| O=c1cccc2n1CC1CC2CN(c2nc(NCC3CCCO3)nc(N3CCCC3)n2)C1 (stereo not drawn) | 5% | -0.68 |
| O=S(=O)(c1cccs1)N1C[C@@H]2CC[C@H]1CN(Cc1ccccn1)C2 | -11% | 1.11 |
| CCCCS(CCCC)=C1C(=O)NC(=O)N(CCc2ccc(F)cc2)C1=O | -8% | 0.88 |
| Clc1cccc(CCN[C@H]2CCOC3(CCOCC3)C2)c1 | 34% | -1.26 |
| O=C1CCC2CN(Cc3ccccc3)CC2C1 (stereo not drawn) | -6% | 1.18 |
| COc1cccc(CN2C[C@H]3CN(C(=O)C(C)C)C[C@@]3(CO)C2)n1 | -10% | 1.3 |
| CC[C@H]1CN(C)CCN1C(=O)Cc1ccc2[nH]c(=O)[nH]c2c1 | 0% | 0.07 |
| Cc1cccc(CNC(=O)c2cn(CCN3CCNCC3)nn2)c1C | 2% | -0.45 |
| Cc1c[nH]c(CN(C)[C@@H](C)Cn2nc(C)cc2C)n1 | -1% | 0.2 |
| O=c1[nH]ncn1C1CCN(C[C@H](O)c2ccc(F)cc2Cl)CC1 | -7% | 1.16 |
| Cc1ccc2c(c1)CCCN2C(=O)CN1CC=C(c2cnn(C)c2)CC1 | 55% | -3.45 |
| C[C@@H](Cc1ccc(Cl)cc1)N(C)Cc1ccn(C)n1 | -6% | 0.57 |
| N#Cc1cccc(CN2C[C@H]3CCC[C@@H](C3)C2)c1 | -8% | 1.6 |

| Structure (SMILES) | % Inhibition | Z score |
| --- | --- | --- |
| CCCNC(=O)CN1C[C@H]1C(=O)NCCC (stereo partly drawn) | -13% | 1.38 |
| CCOc1ccc(N2C(=O)NC(=O)[C@@]3(Cc4c(ccc5ccccc45)N(C)C3)C2=O)cc1 | 14% | -2.22 |
| CCN1CC[C@H]2OCCN(C(=O)c3cnc(COC)nc3N)[C@H]2C1 | -1% | 0.1 |
| O=C1N=C(O)N(CCc2ccccc2)C(=O)C12Cc1ccccc1N1CCCC12 (stereo not drawn) | -7% | 0.62 |
| N=C1c2ccccc2CN1c1cccnc1 | -10% | 1.36 |
| CN1CCC[C@@]2(CCN(Cc3ccc(C(F)(F)F)cn3)C2)C1 | 2% | -0.25 |
| Cc1nnc(CN(C)CCc2ccc(F)cc2Cl)n1C | -6% | 0.77 |
| CC(Nc1ccc(C#N)c(Cl)c1)C1CCOC1 (stereo not drawn) | -5% | 1.02 |
| O=C(COc1cccc(F)c1)N1C[C@@H]2CC[C@H]1CN(Cc1cscn1)C2 | -9% | 1.33 |
| COc1ccccc1Cn1cc(C(=O)NCCC(C)C)c(=O)c(C(=O)NC[C@H]2CCCO2)c1 | -2% | 0.39 |
| Cc1cccc(CC(=O)N2CCC3(CC2)OCCO3)c1 | 9% | -1.68 |
| COc1ccc(-c2cn(C[C@H]3C[C@@H]4CCN3C[C@@H]4C(=O)N3CCOCC3)nn2)cc1 | -6% | 0.91 |
| O=C1NC(=O)C(CCc2ccccn2)(CCc2ccccn2)C(=O)N1CCC1=CCCCC1 | -12% | 1.35 |
| CCN(CC)C(=O)Oc1ccc2c(ccn2Cc2cc(Cl)cc(Cl)c2)c1-c1ccc(C)cc1 | -11% | 1.96 |
| Cc1ccc2ncc(CN3CCN4CCOC[C@]4(CO)C3)cc2c1 | 1% | -0.12 |
| Cc1cc(C)cc(OCCn2c(-c3ccccn3)noc2=O)c1 | -9% | 1.46 |
| CC(C)Cc1cc(CN2CCC3(CC2)CNCCO3)no1 | -1% | 0.17 |
| CC12CNCC(C)(CN(Cc3ccccc3)C1)C2 | -10% | 1.27 |
| COCCOCC(=O)N1[C@H]2CC[C@@H]1c1cnc(-c3ccc(F)cc3)nc1C2 | -3% | 0.49 |
| Cc1ccc2c(CCN=C(N)N3CCOCC3)cn(C)c2c1 | -3% | 0.61 |
| Cc1ccc(CNc2ncnc3[nH]ncc23)c(-n2cc(Cl)cn2)n1 | 12% | -2.28 |
